From publication PMC4336329 (PLoS ONE, 2015)
Out of some 310,000 compounds screened, about 14,000 (4.5%) showed an effect of 50% or more. Effects have a minus sign here. Some of the results follow.

Molecular target: human ether-à-go-go-related gene (hERG) potassium channel (human, UniProt Q12809)
Assay: primary screen, population patch clamp on CHO cells stably expressing hERG
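Note: peak tail current of the secondary pulse compared with the same well before compound.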

human ether-à-go-go-related gene (hERG) potassium channel, sequence (Q12809 whole entry, looked up): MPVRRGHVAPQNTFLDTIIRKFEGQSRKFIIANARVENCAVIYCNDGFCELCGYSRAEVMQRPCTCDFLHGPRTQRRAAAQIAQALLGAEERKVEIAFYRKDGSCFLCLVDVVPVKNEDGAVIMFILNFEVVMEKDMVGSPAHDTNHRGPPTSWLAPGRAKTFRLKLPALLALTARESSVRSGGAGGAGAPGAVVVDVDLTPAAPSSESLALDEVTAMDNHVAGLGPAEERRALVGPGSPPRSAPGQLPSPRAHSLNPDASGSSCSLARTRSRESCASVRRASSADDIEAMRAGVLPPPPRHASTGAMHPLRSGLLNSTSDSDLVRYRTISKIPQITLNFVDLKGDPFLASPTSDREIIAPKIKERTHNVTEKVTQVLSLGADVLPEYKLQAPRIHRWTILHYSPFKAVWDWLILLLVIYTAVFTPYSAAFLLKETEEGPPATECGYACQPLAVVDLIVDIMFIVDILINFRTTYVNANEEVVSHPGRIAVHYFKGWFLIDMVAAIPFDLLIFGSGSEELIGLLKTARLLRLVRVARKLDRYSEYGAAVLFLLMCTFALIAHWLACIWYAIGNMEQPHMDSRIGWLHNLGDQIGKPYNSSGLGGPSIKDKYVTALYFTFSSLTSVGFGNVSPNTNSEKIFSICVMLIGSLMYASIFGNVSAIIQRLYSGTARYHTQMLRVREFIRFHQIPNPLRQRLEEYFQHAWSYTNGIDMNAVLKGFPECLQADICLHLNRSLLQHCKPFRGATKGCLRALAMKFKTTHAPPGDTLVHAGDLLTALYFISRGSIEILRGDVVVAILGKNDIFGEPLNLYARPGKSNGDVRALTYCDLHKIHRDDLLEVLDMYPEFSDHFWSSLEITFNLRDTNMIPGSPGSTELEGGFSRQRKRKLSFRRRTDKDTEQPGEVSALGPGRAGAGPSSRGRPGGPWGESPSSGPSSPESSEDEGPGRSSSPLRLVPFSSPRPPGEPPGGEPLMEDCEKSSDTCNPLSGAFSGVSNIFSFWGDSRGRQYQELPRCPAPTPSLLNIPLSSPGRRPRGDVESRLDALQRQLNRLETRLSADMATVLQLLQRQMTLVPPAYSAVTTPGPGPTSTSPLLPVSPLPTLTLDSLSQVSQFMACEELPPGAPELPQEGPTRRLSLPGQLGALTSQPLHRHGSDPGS

SMILES	hERG current change (%, negative = inhibition) at 10uM [%]
COc1ccc(C(=O)NCCN2CCN(C(=O)c3ccc(OC)c(OC)c3)CC2)cc1OC	14.5
CN(C)c1ccc(C(=O)c2ccc(N(C)C)c(N)c2)cc1N	-3.79
CCn1cc(CN2CCN(CC(C)(C)C)C(CCO)C2)c2ccccc21 (centres unmarked)	-5.77
Cc1ccc(C(=O)/C=C/Nc2ccccc2C(N)=O)o1	-13.4
CC1CC(=O)NN=C1c1ccc(N(C)C)c([N+](=O)[O-])c1 (centres unmarked)	-4.94
O=C(NCc1ccccc1)C(c1ccncc1)N(C(=O)c1csnn1)c1cccc(F)c1 (centres unmarked)	-3.64
Cc1ccsc1C1CC(=O)NC2=C1C(=O)CC(C)(C)C2 (centres unmarked)	6.43
Cc1cc(-c2nnc(SCC(=O)Nc3nc(-c4ccc(Cl)cc4)cs3)o2)no1	14.7
COc1cccc(NC(=O)[C@@H]2CCCN2C(=O)C2CCN(S(=O)(=O)c3ccc(C)cc3)CC2)c1	-25.2
O=C(CCNS(=O)(=O)c1ccc2[nH]c(=O)oc2c1)Nc1ccccc1	11.7
O=C(C1CCN(S(=O)(=O)c2ccc(Br)cc2)CC1)N1CCOCC1	-5.07
Cc1ccc(C(=O)Nc2cccc(N(C)S(C)(=O)=O)c2)cc1S(=O)(=O)Nc1ccccc1	-2.07
CCSC1=NSC2=NC(=O)/C(=C\c3coc4ccccc4c3=O)C(=N)N12	1.4
Cc1ccccc1C(=O)NCC(=O)O	20.6
O=C(c1ccc2ccccc2c1)N1CCc2ccccc21	3.51
CC(C)(C)n1nnnc1C(c1cccnc1)N1CCN(c2cccc(C(F)(F)F)c2)CC1.Cl (centres unmarked)	-53.3
Cc1ncc(CO)c(/C=N/NC(=S)Nc2ccc(F)cc2)c1O	29.2
O=C1Nc2ccccc2N(O)N1c1ccc(S(=O)(=O)N2CCCCCC2)cc1	1.75
CC1CCCCN1S(=O)(=O)c1ccc(C(=O)Nc2ccccc2-c2nc3ccccc3s2)cc1 (centres unmarked)	8.6
C/C(=N\NC(=O)c1c[nH]c2ccccc12)c1ccc2c(c1)OCO2	1.64
Cc1ccc(CNC(=O)COc2ccc(C)nc2[N+](=O)[O-])cc1	-43.6
Cc1ccc2c(c1)CCCN2C(=O)CCc1nc2ccccc2c(=O)[nH]1	-23.3
COc1ccc(NC(=O)N2CCCc3cc(C)ccc32)c(OC)c1	-14.2

SMILES	hERG current change (%, negative = inhibition) at 10uM [%]
COc1ccc2c(c1)C(NC(C)=O)C(=O)N2CCc1ccccc1 (centres unmarked)	5.5
Cc1ccc(-c2nnc(SCC(=O)Nc3cccc(C(=O)N4CCOCC4)c3)n2C)cc1	-17.4
Cc1sc2nc[nH]c(=O)c2c1-c1ccc(Cl)cc1	14.6
CCCC(c1nnnn1Cc1ccco1)N1CCC(C(N)=O)CC1.Cl (centres unmarked)	-11.6
O=C(O)c1cc(NCc2ccccc2)ccc1N1CCOCC1	1.3
Cc1ccc(S(=O)(=O)N2CCC(=O)N(CCOCc3ccc(Cl)cc3)CC2)cc1	-60.1
COc1ccccc1N1CCN(CC(=O)Nc2ccccc2C(=O)NCCc2ccccc2)CC1	101
O=C(OCc1ccccc1)c1ccc(Br)o1	8.45
C=CCN(C(=O)Nc1ccc(OC)cc1)c1nnc(-c2ccncc2)s1	-22.3
COC(=O)c1c(C)oc(C)c1S(=O)(=O)N1CCCCC1	9.1
COc1cc2[nH]c(-c3ccc(C)cc3)cc(=O)c2cc1OC	9.96
COc1ccccc1NS(=O)(=O)c1cc(C(=O)NCC(c2ccco2)N2CCCCC2)ccc1C (centres unmarked)	-48.6
C=CCOc1ccc(CN(C)CC(O)COc2ccc(CCC(C)=O)cc2)cc1 (centres unmarked)	-63.6
O=C(CNc1ccc(Br)cc1)Nc1ccc(S(=O)(=O)N2CCCC2)cc1	-20.1
COc1ccc(S(=O)(=O)NCc2ccncc2)cc1NC(=O)c1ccccc1	-34.7
O=C(c1ccc2c(c1)OCO2)C1CCCN(Cc2c(F)ccc(F)c2F)C1 (centres unmarked)	-15.8
O=[N+]([O-])c1ccccc1SN(Cc1ccccc1)c1ccccn1	6.93
CCOC(=O)CC(=O)CSc1[nH]c(=O)cc(C)c1C#N	5.39
CCN(CC(=O)Nc1c(F)cccc1F)C(=O)CNC(=O)c1ccco1	1.29
CC1(C)CC(NC(=O)c2cc(S(=O)(=O)N3CCCCC3)ccc2Cl)CC(C)(C)N1	-26.3
CCOC(=O)C[N+](CC)(CC)CC#Cc1ccccc1	0.628
O=c1c2ccccc2c(-c2ccc(O)cc2)nn1-c1cccc(C(F)(F)F)c1	-6.54
CCNc1cc2oc(=O)c(CN3CCOCC3)c(C)c2cc1C	-11.4

SMILES	hERG current change (%, negative = inhibition) at 10uM [%]
Cc1c(CC(=O)N[C@@H](CCCNC(N)=O)C(=O)O)c(=O)oc2cc3oc4c(c3cc12)CCCC4	39.1
CCOc1cccc(C=NCCc2ccc(OC)c(OC)c2)c1O	12.4
CCOc1cccc2cc(C(=O)NCc3ccccc3)c(=N)oc12	3.3
Cc1c(C)c2ccc(OCC(=O)Nc3ccccc3C(N)=O)cc2oc1=O	0.123
CC1CC(C)CN(C(=O)C2CCN(S(=O)(=O)c3ccc4c(c3)CC(C)N4C(=O)C3CC3)CC2)C1 (centres unmarked)	-2.32
COc1cc(NC(=O)c2cccc(Br)c2)nc(OC)n1	3.34
COC(=O)Nc1nc2ccc(C(=O)c3cccs3)cc2[nH]1	-2.34
Cc1ccccc1CNC(=O)C(=O)Nc1nccs1	52.7
Cc1cccc(Nc2nnc(SCC(=O)NC(=O)CN3CCCC3=O)s2)c1	11.4
COc1ccc(Cl)cc1NC(=O)c1[nH]c(C)c(C(C)=O)c1C	6.22
Cc1cc(C)nc(N2CCC(C(=O)NC3CCCc4ccccc43)CC2)n1 (centres unmarked)	17.6
COc1ccc(N2C(=O)/C(=C/c3cccs3)NC2=S)cc1	17.3
Cc1ccc(-c2nnc(Nc3ccc(CC(N)=O)cc3)c3ccccc23)cc1S(=O)(=O)NCCO	13.7
O=C(c1ccccc1)n1nnc2ccccc21	0.0333
COc1ccc(CCN2C(=O)c3ccccc3NC2c2cc(Cl)c(O)c(OC)c2)cc1 (centres unmarked)	-4.85
CC1=C(C(=O)Nc2ccccc2C)C2(CCCC2)C(C(N)=O)C(=O)N1 (centres unmarked)	1.79
S=c1[nH]nc(-c2ccncc2)n1/N=C/c1ccccc1Cl	19.6
CCOC(=O)c1c(C)n(C)c2ccc(OC)c(NS(=O)(=O)c3ccc(Cl)s3)c12	-5.3
Nc1nnc(/C=C/c2ccccc2)s1	21.1
CCOC(=O)N1CCN(C(=O)CCSc2ccc(C)cc2)CC1	-13.8
COc1ccc(Cl)cc1-c1nc(SCC(=O)NC(C)(C)C)n[nH]1	-3.68
CCc1cc(=O)n2c([nH]c3ccccc32)c1C#N	15.2
CN(NC(=O)COc1ccccc1)C1=NS(=O)(=O)c2ccccc21	26.1

SMILES	hERG current change (%, negative = inhibition) at 10uM [%]
CCOC(=O)[C@@H]1[C@H]2COc3ccc(Br)cc3[C@H]2N2C(=O)N(c3ccc(F)cc3)C(=O)[C@@]12C	5.43
Cn1cccc1Cc1nnc(SCC(=O)N2CCOCC2)n1-c1ccc(F)cc1	11
Cc1nc(N2CCN(c3ccccc3)CC2)[nH]c(=O)c1C	-1.79
CCOC(=O)c1c(-c2ccccc2)nc2ccc(C)cn12	-16.9
Cc1ccc(S(=O)(=O)Nc2ccc(C(=O)Nc3cc(C)on3)cc2)cc1	1.43
C/C(=N\n1nnnc1Nc1ccccc1)c1ccc(N)cc1	13.8
CCN(C(=O)c1cc2ccccc2oc1=O)c1ccccc1	0.49
O=C(Nc1ccccc1)OCCCc1ccccc1	-5.8
COc1ccc(C(C(=O)NC(C)(C)C)N(C(=O)CCC(=O)Nc2cc(C)on2)c2cccc(C)c2C)cc1 (centres unmarked)	14.4
Cn1c(OCc2ccco2)nc2c1c(=O)n(Cc1ccc(Cl)c(Cl)c1)c(=O)n2C	-13.1
c1ccc2c(c1)cnc1ccccc12	-6.13
Cc1nc2sccn2c(=O)c1Cl	-1.99
CCc1nc(-c2ccc(C)nc2OC)no1	18.1
Nn1cc(-c2ccccc2)nc1SCC(=O)NCC1CCCO1 (centres unmarked)	1.42
C[n+]1ccccc1/C=N/O.[I-]	2.23
O=C(c1ccc(Cl)c([N+](=O)[O-])c1)N(Cc1cccc(Cl)c1)C1CCS(=O)(=O)C1 (centres unmarked)	-32.5
O=C(NCCCN1CCCC1=O)c1cccc(N2CCCC2=O)c1	4.33
CCCCCC1(C)NC(=S)N(c2ccccc2)N1 (centres unmarked)	7.03
N#Cc1ccc(CSc2ccccn2)c(Cl)c1	10.6
Cc1ccc(S(=O)(=O)NCCC(=O)Nc2cc(F)ccc2C)cc1C	2.51
